We go through 43 compounds from article PMC11995724, “Antibiotic target discovery by integrated phenotypic and activity-based profiling of electrophilic fragments” (Cell chemical biology, 2025).

Among all 3,200 compounds or so, about 75 (2%) showed an effect of 50% or more. The list shows a part of the results.

This assay has as its system T1, S. aureus MSSA476.
T1 construct: MSSA476
Further details: species or system S. aureus MSSA476 (TSB) or V. cholerae SAD30 (LB); 384-well bacterial growth screen at 25 uM, OD600 relative to DMSO control. To be noted: relative growth, OD600, TSB; 25 µM; inhibitor.
Regarding `CSc1ccc(C=C(C#N)C(=O)Nc2ccc(C(=O)O)cc2)cc1` [9-M08, 4-{2-cyano-3-[4-(methylsulfanyl)phenyl]prop-2-enamido}benzoic acid], the “% of control remaining” value came to 103.97%.
Next, `COc1ccccc1NC(=O)C(C#N)=Cc1ccc(F)cc1` [8-E18, 2-cyano-3-(4-fluorophenyl)-N-(2-methoxyphenyl)prop-2-enamide]: 117.842%; `Cc1cccc(C)c1NC(=O)CCl` [5-P20, 2-chloro-N-(2,6-dimethylphenyl)acetamide]: 101.639%.
Next, `C=CC(=O)NC1CCN(c2nnnn2C)CC1` [3-G06, N-[1-(1-methyl-1H-1,2,3,4-tetrazol-5-yl)piperidin-4-yl]prop-2-enamide]: 85.677%; `C=CC(=O)N1CCC(C(=O)NCC(C)(C)C2(O)CCCC2)CC1` [2-D14, N-[2-(1-hydroxycyclopentyl)-2-methylpropyl]-1-(prop-2-enoyl)piperidine-4-carboxamide]: 126.719%; `C=CC(=O)N1CCC(C(=O)Nc2cccc(NC(=O)C(C)C)c2)CC1` [3-F05, N-[3-(2-methylpropanamido)phenyl]-1-(prop-2-enoyl)piperidine-4-carboxamide]: 95.0805%.
Next, `C=CC(=O)NCC1CC(CC(=O)O)CO1` (stereo not shown) [2-E03, 2-{5-[(prop-2-enamido)methyl]oxolan-3-yl}acetic acid]: 113.49%; `N#CC(=Cc1ccco1)C(=O)NC1CCN(c2ccc(F)cc2F)C1` (stereo not shown) [9-L09, 2-cyano-N-[1-(2,4-difluorophenyl)pyrrolidin-3-yl]-3-(furan-2-yl)prop-2-enamide]: 92.2846%.
Regarding `COc1cc(C=C(C#N)C(=O)NCc2ccccc2)cc2c1OCCO2` [9-I10, N-benzyl-2-cyano-3-(8-methoxy-2,3-dihydro-1,4-benzodioxin-6-yl)prop-2-enamide], the “% of control remaining” value came out at 77.9026%.
As for `Cc1ccccc1C(NC(=O)CCl)c1ccccc1C` [7-J04, N-[bis(2-methylphenyl)methyl]-2-chloroacetamide], the “% of control remaining” value was 87.2841%.
Next, `C=CC(=O)N1CCCC(n2cc(C)cn2)C1` (stereo not shown) [3-M12, 1-[3-(4-methyl-1H-pyrazol-1-yl)piperidin-1-yl]prop-2-en-1-one]: 101.001%.
`O=C(CCl)Nc1ccc(S(=O)(=O)C(F)F)cc1` [4-N16, 2-chloro-N-(4-difluoromethanesulfonylphenyl)acetamide]: the “% of control remaining” value was determined as 116.627%.
Regarding `CC(Cl)C(=O)NC(C)C(=O)N1CCc2ccccc21` (stereo not shown) [7-M21, 2-chloro-N-[1-(2,3-dihydro-1H-indol-1-yl)-1-oxopropan-2-yl]propanamide], the “% of control remaining” value is 100.785%.
Under `COc1ccc2ccccc2c1C=C(C#N)C(=O)NC1CCCCC1` [8-P18, 2-cyano-N-cyclohexyl-3-(2-methoxynaphthalen-1-yl)prop-2-enamide] stands 140.415%.
Under `C=CC(=O)NCc1cc(-c2ccco2)on1` [1-A21, N-{[5-(furan-2-yl)-1,2-oxazol-3-yl]methyl}prop-2-enamide] stands 130.462%; under `O=C(CCl)N1N=C(c2ccco2)CC1c1cccc(Cl)c1` (stereo not shown) [5-M17, 2-chloro-1-[5-(3-chlorophenyl)-3-(furan-2-yl)-4,5-dihydro-1H-pyrazol-1-yl]ethan-1-one], 81.9672%; under `O=C(CCl)NC(Cc1ccccc1)c1ccccc1F` (stereo not shown) [7-N10, 2-chloro-N-[1-(2-fluorophenyl)-2-phenylethyl]acetamide], 83.5165%.
Regarding `O=C(CCl)Nc1cc(-c2ccccc2)nn1-c1ccccc1` [4-A20, 2-chloro-N-(1,3-diphenyl-1H-pyrazol-5-yl)acetamide], the “% of control remaining” value was found to be 131.11%.
Under `CC(Cl)C(=O)NC1CCc2cnn(C(C)C)c2C1` (stereo not shown) [7-H05, 2-chloro-N-[1-(propan-2-yl)-4,5,6,7-tetrahydro-1H-indazol-6-yl]propanamide] stands 95.1334%.
Next, `N#CC(=Cc1cccc(Cl)c1Cl)C(=O)NCCc1ccccc1` [8-J06, 2-cyano-3-(2,3-dichlorophenyl)-N-(2-phenylethyl)prop-2-enamide]: 0.6639%.
With `CCOc1cc(C=C(C#N)C(=O)NC(C)C)cc(Cl)c1O` [9-I13, 3-(3-chloro-5-ethoxy-4-hydroxyphenyl)-2-cyano-N-(propan-2-yl)prop-2-enamide], the “% of control remaining” value was found to be 91.985%.
Under `Cc1cccc(C)c1NC(=O)C(C#N)=Cc1c(C)n[nH]c1C` [8-O20, 2-cyano-3-(3,5-dimethyl-1H-pyrazol-4-yl)-N-(2,6-dimethylphenyl)prop-2-enamide] stands 101.909%; under `Cc1cc(CN(C(=O)CCl)c2csnc2C)cs1` [5-C12, 2-chloro-N-(3-methyl-1,2-thiazol-4-yl)-N-[(5-methylthiophen-3-yl)methyl]acetamide], 105.282%.
As to `Cc1nn(C)c(N2CCCN(C)CC2)c1CNC(=O)C(C)Cl` (stereo not shown) [6-N17, 2-chloro-N-{[1,3-dimethyl-5-(4-methyl-1,4-diazepan-1-yl)-1H-pyrazol-4-yl]methyl}propanamide], the “% of control remaining” value is on record as 115.756%.
Under `CC(Cl)C(=O)N1CCCCCC1` (stereo not shown) [5-F11, 1-(azepan-1-yl)-2-chloropropan-1-one] stands 102.004%; under `C=CC(=O)N(CC)CC(=O)Nc1ccc2c(c1)nc1n2CCCCC1` [3-M19, N-[({1,8-diazatricyclo[7.5.0.0,2,7]tetradeca-2,4,6,8-tetraen-5-yl}carbamoyl)methyl]-N-ethylprop-2-enamide], 115.977%; under `C=CC(=O)Nc1ccc2oc(CC(C)(C)C)nc2c1` [3-K18, N-[2-(2,2-dimethylpropyl)-1,3-benzoxazol-5-yl]prop-2-enamide], 106.922%.
On to `CC(Cl)C(=O)Nc1ccc(OC(F)F)c(Cl)c1` (stereo not shown) [4-F18, 2-chloro-N-[3-chloro-4-(difluoromethoxy)phenyl]propanamide], for which the “% of control remaining” value came out at 97.9514%.
As to `C=CC(=O)N1CCCC(c2nc(C)no2)C1` (stereo not shown) [2-K12, 1-[3-(3-methyl-1,2,4-oxadiazol-5-yl)piperidin-1-yl]prop-2-en-1-one], the “% of control remaining” value was found to be 97.4761%.
Under `C=CC(=O)Nc1ccc(C(=O)N2CCCCC2c2n[nH]c(C)n2)cc1` (stereo not shown) [3-E13, N-{4-[2-(5-methyl-1H-1,2,4-triazol-3-yl)piperidine-1-carbonyl]phenyl}prop-2-enamide] stands 122.943%.
Under `C=CC(=O)N(Cc1cc(C)cc2c(C)c(C)[nH]c12)CC1(C)COC1` [2-E07, N-[(3-methyloxetan-3-yl)methyl]-N-[(2,3,5-trimethyl-1H-indol-7-yl)methyl]prop-2-enamide] stands 117.319%.
Under `C=CC(=O)N(Cc1cccs1)C1CCc2cnn(C(C)C)c2C1` (stereo not shown) [1-L15, N-[1-(propan-2-yl)-4,5,6,7-tetrahydro-1H-indazol-6-yl]-N-[(thiophen-2-yl)methyl]prop-2-enamide] stands 140.659%; under `N#CC(=Cc1ccc(Cl)cc1Cl)C(=O)Nc1nccs1` [9-H19, 2-cyano-3-(2,4-dichlorophenyl)-N-(1,3-thiazol-2-yl)prop-2-enamide], 102.172%; under `C=CC(=O)NC1CCC(n2c(C)ccc2C)CC1` (stereo not shown) [2-E19, N-[4-(2,5-dimethyl-1H-pyrrol-1-yl)cyclohexyl]prop-2-enamide], 111.053%.
`C=CC(=O)Nc1nc2cc(C(F)(F)F)ccc2n1Cc1ccco1` [1-G11, N-{1-[(furan-2-yl)methyl]-5-(trifluoromethyl)-1H-1,3-benzodiazol-2-yl}prop-2-enamide]: the “% of control remaining” value worked out at 86.5055%.
In the case of `C=CC(=O)NC(c1ccc(F)cc1)C1CC1` (stereo not shown) [3-H20, N-[cyclopropyl(4-fluorophenyl)methyl]prop-2-enamide], the “% of control remaining” value stood at 100.305%.
Under `Cn1cc(C=C(C#N)C(=O)NC2CCCC2)c(-c2ccncc2)n1` [9-L16, 2-cyano-N-cyclopentyl-3-[1-methyl-3-(pyridin-4-yl)-1H-pyrazol-4-yl]prop-2-enamide] stands 90.4869%; under `COc1ccc(-n2c(C)cc(C(=O)CCl)c2C)cc1` [10-I12, 2-chloro-1-[1-(4-methoxyphenyl)-2,5-dimethyl-1H-pyrrol-3-yl]ethan-1-one], 127.813%; under `C=CC(=O)Nc1c(C)ccn2ncnc12` [2-M08, N-{7-methyl-[1,2,4]triazolo[1,5-a]pyridin-8-yl}prop-2-enamide], 82.8547%.
Turning to `C=CC(=O)N(Cc1ccc(-n2cncn2)cc1)C1CC1` [3-J11, N-cyclopropyl-N-{[4-(1H-1,2,4-triazol-1-yl)phenyl]methyl}prop-2-enamide], the “% of control remaining” value was found to be 116.326%.
Under `C=CC(=O)Nc1c(C)cccc1SCC(=O)N(C)C` [1-E13, N-(2-{[(dimethylcarbamoyl)methyl]sulfanyl}-6-methylphenyl)prop-2-enamide] stands 79.8242%; under `CC(C)NC(=O)C(C#N)=Cc1ccc2c(c1)OCCO2` [9-E11, 2-cyano-3-(2,3-dihydro-1,4-benzodioxin-6-yl)-N-(propan-2-yl)prop-2-enamide], 106.367%; under `CC(Cl)C(=O)c1ccc2c(c1)NC(=O)CO2` (stereo not shown) [10-P12, 6-(2-chloropropanoyl)-3,4-dihydro-2H-1,4-benzoxazin-3-one], 104.375%.
